From publication PMC7819943, “Rice protein-binding microarrays: a tool to detect cis-acting elements near promoter regions in rice”
The other results are listed elsewhere or left out.

Each sequence was assayed against T1, OsWOX13 (Oryza sativa, UniProt Q5QMM3 1-267) (assay: protein-binding microarray (RPBM); PBS, 2% BSA, 51.3 ng/ul salmon testes DNA, 50 uM zinc acetate, 200 nM TF, 25 C, 1 h; high values mean tight binding). Conditions: protein: recombinant; tags: N-terminal polyhistidine and DsRed monomer fusion (pET32a); label: CyDye5-dUTP incorporated in the synthesized complementary strand; 3' TTTTT single-stranded linker to array surface; dsDNA, one strand shown.
T1 sequence: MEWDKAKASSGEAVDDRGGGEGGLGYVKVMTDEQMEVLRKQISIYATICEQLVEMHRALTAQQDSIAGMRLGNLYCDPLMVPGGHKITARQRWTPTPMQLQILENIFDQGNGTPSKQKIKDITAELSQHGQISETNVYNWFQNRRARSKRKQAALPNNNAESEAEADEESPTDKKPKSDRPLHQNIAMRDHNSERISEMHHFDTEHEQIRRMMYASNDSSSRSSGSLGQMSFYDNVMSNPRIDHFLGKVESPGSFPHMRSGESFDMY
Summary of the method: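 In PBS with 2% BSA, salmon testes DNA and 50 µM zinc acetate, 200 nM protein was incubated on a custom Agilent array at 25 °C for 1 h and then washed off. The array had been made double-stranded by primer extension with Cy5-dUTP and blocked with 2% BSA. The proteins were transcription factors fused N-terminally to polyhistidine and DsRed, expressed in E. coli BL21-CodonPlus and purified on Ni–NTA. The binding signal is per-feature fluorescence intensity (arbitrary units) from an Axon 4000B scanner.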
“ACTTAGCACTTGATTACATATATTTTGGTCGTGTAGTTGTCGGAGTCACCTAGTGCAG” was tested, and the binding signal was 5480 fluorescence intensity (a.u.). For “CTCGGGATTGCTAATTAGCGCACGTGTGTTTCCAACAAATCGGAGTCACCTAGTGCAG”, the binding signal was 35100 fluorescence intensity (a.u.). In the case of “CATGACTGAAGAGCAGAAGGTGTCTAGCTAGTTGCCTAGTCGGAGTCACCTAGTGCAG”, the binding signal is reported as 6700 fluorescence intensity (a.u.). With “TAACATGATCTAAATTATGTATTGTCCTTCGCGAACAGTGCGGAGTCACCTAGTGCAG” the binding signal was 11700 fluorescence intensity (a.u.). With “ACTTAATCAAATTTAAAGCACTTTCGTCTTATACCCTAACCGGAGTCACCTAGTGCAG” the binding signal was 12400 fluorescence intensity (a.u.). In the case of “TGATCAATTATCGGTGCATGTCTGTCCATTTCGATTATCACGGAGTCACCTAGTGCAG”, the binding signal is reported as 14500 fluorescence intensity (a.u.). “AGCAAATTAATTAACACAAATCGATCATGATTCGGATCTGCGGAGTCACCTAGTGCAG” was tested, and the binding signal was 27800 fluorescence intensity (a.u.). In the case of “TTCGTCTCCCAATTTACACGCAATTTATGTAATTAGTTTTCGGAGTCACCTAGTGCAG”, the binding signal is reported as 5660 fluorescence intensity (a.u.). With “AAATGATTATTCCCGTTTTGGCTATATTTATCCCATTAATCGGAGTCACCTAGTGCAG” the binding signal was 18000 fluorescence intensity (a.u.). In the case of “TCTTATGATCCAACACTGATTATCTAGCACTTCAAGGCCTCGGAGTCACCTAGTGCAG”, the binding signal is reported as 5610 fluorescence intensity (a.u.). For “CACCTTAACTGTTACCGTGTGGTGTTGGAATCTCTCTCTTCGGAGTCACCTAGTGCAG”, the binding signal was 3880 fluorescence intensity (a.u.). For “GGAGATTGGATATGGGCTGGGCTTATGGGTTCATGGCCCACGGAGTCACCTAGTGCAG”, the binding signal was 18500 fluorescence intensity (a.u.). In the case of “TCCTTAACGCTATATTCAATCTCATTCTGTCCACTCAGGTCGGAGTCACCTAGTGCAG”, the binding signal is reported as 3620 fluorescence intensity (a.u.). For “TCCAGTGAGATTGGTTCTGTTGCGGAATCGCCGATCTGCGCGGAGTCACCTAGTGCAG”, the binding signal was 5920 fluorescence intensity (a.u.). “GCTGTTAATTGTATACCCCACTTGGCCGCTATCTTTGACACGGAGTCACCTAGTGCAG” was tested, and the binding signal was 24200 fluorescence intensity (a.u.). “TATTAATAGACGATTGCAGTGCACCGAAAGAAAGCGACCACGGAGTCACCTAGTGCAG” was tested, and the binding signal was 11600 fluorescence intensity (a.u.). “TCGGCATAATTTGTATGACGTGTCCTATCACAACAAACTCCGGAGTCACCTAGTGCAG” was tested, and the binding signal was 6220 fluorescence intensity (a.u.). For “ATACTTAATTAATCATGCGCTAATGGCTCACCTCGTTTTGCGGAGTCACCTAGTGCAG”, the binding signal was 29600 fluorescence intensity (a.u.). In the case of “GACAAATTTGTACCGTGTATCGATGGCACTTCTTATCTATCGGAGTCACCTAGTGCAG”, the binding signal is reported as 8130 fluorescence intensity (a.u.). “AAGATATGTGGGATAATTGACTGTTTATGCCTAAATATATCGGAGTCACCTAGTGCAG” was tested, and the binding signal was 22400 fluorescence intensity (a.u.). With “GATAGATTGATCAGACATCATGGCCGAGTATGGATTGGAGCGGAGTCACCTAGTGCAG” the binding signal was 36200 fluorescence intensity (a.u.). “ACTTAACTGGGATTTCCCGGTATAAACGATTTCACTGGTACGGAGTCACCTAGTGCAG” was tested, and the binding signal was 20000 fluorescence intensity (a.u.). “TTCGTAATCATTTGACCAACAAGTGGGGAGGTACTACACGCGGAGTCACCTAGTGCAG” was tested, and the binding signal was 4030 fluorescence intensity (a.u.). With “CATGACAAACTGCAATTGCTATTAATTCTCTGCAGAAATGCGGAGTCACCTAGTGCAG” the binding signal was 8330 fluorescence intensity (a.u.). With “TAGATTGATAAGTACAATTGTATCTATAGAAACATAAGATCGGAGTCACCTAGTGCAG” the binding signal was 30600 fluorescence intensity (a.u.). In the case of “TAATAATGTCCAATCCTGCAATGAAGATAGAGAAACCCAACGGAGTCACCTAGTGCAG”, the binding signal is reported as 3470 fluorescence intensity (a.u.). For “GGAAGATTTATTTGATATTTTAAAGTAACTTTCATTTAGACGGAGTCACCTAGTGCAG”, the binding signal was 10800 fluorescence intensity (a.u.). In the case of “CCTCAATTATTTGCAAGATGGGGTCATCACTATTGTAGTACGGAGTCACCTAGTGCAG”, the binding signal is reported as 24800 fluorescence intensity (a.u.). With “GAAGTGATTGATATTTGAGCAATTAGTCCGTTGTCAGGGTCGGAGTCACCTAGTGCAG” the binding signal was 62400 fluorescence intensity (a.u.). For “AGTAATCAATTGTTTTGGTAACTTGGTAGGAGTAGGATCTCGGAGTCACCTAGTGCAG”, the binding signal was 3160 fluorescence intensity (a.u.). For “ATGGAAAATGATTGTAATTAGCGGATAGAATAAAGTATTTCGGAGTCACCTAGTGCAG”, the binding signal was 9100 fluorescence intensity (a.u.). For “CATATAATAAACATTCAATGATGATACAAACTGCAAAGACCGGAGTCACCTAGTGCAG”, the binding signal was 4020 fluorescence intensity (a.u.). In the case of “GATTAGATTGATCACCTTCCCTAGCATTAAATAAACAGTACGGAGTCACCTAGTGCAG”, the binding signal is reported as 33800 fluorescence intensity (a.u.). For “GTCAATTTCCAAATCAAATGTACTTAACGGGTGAACCCGTCGGAGTCACCTAGTGCAG”, the binding signal was 6220 fluorescence intensity (a.u.). In the case of “AAGGCACGTTGATTGGACTAGTAGTACTACTACGTAGTAGCGGAGTCACCTAGTGCAG”, the binding signal is reported as 18400 fluorescence intensity (a.u.). In the case of “ATTGATTTACGGGATTGAAGTTAGTATAATTACATGTAAGCGGAGTCACCTAGTGCAG”, the binding signal is reported as 53600 fluorescence intensity (a.u.). With “AAACTAATCATGCGCAATGATGCGTGCAGCTGCGCGGCCGCGGAGTCACCTAGTGCAG” the binding signal was 8020 fluorescence intensity (a.u.). With “AAGATTTGCAACCAATCAATACCACCAAATTTCCGGATTTCGGAGTCACCTAGTGCAG” the binding signal was 28300 fluorescence intensity (a.u.). “CCTTGCAAATCACTATCATCTACATACTCCAGTACAAATACGGAGTCACCTAGTGCAG” was tested, and the binding signal was 3650 fluorescence intensity (a.u.). For “TTCTGATGACTAGTATGAGACGTGAATGCCAACGCTCTCACGGAGTCACCTAGTGCAG”, the binding signal was 3900 fluorescence intensity (a.u.). “TTTAATATGATTTTAGTGAGATTAAGATGTGTAGTTAGTTCGGAGTCACCTAGTGCAG” was tested, and the binding signal was 8040 fluorescence intensity (a.u.). In the case of “GCCGATTTGACTGTTGATTAGGCATATCTTAGCACTAAACCGGAGTCACCTAGTGCAG”, the binding signal is reported as 23800 fluorescence intensity (a.u.).
